In the supplement of paper PMC10369915:
Some of the results follow. Cut-off read from the data, not from the text of the source: active = 3.2 or more and inactive = the rest. Most of these values are background signal.

B1: IQGA1_HUMAN_172 (peptide)
chain: APQIQDLYGKVDFTE
B2: IQGA3_HUMAN_162 (peptide)
chain: APQIHDLYGKVKFTA
B3: IRS1_HUMAN_896 (peptide)
chain: EPKSPGEYVNIEFGS
B4: IRS2_HUMAN_540 (peptide)
chain: GGGGGEFYGYMTMDR
B5: IRS4_HUMAN_921 (peptide)
chain: EADSSSDYVNMDFTK
B6: ITB3_HUMAN_773 (peptide)
chain: DTANNPLYKEATSTF
B7: ITGB7_HUMAN_758 (peptide)
chain: EIYDRREYSRFEKEQ
B8: 3BP2_HUMAN_174 (peptide)
chain: YPTDNEDYEHDDEDD
B9: ITK_HUMAN_180 (peptide)
chain: ETVVIALYDYQTNDP
B10: ITPR1_HUMAN_353 (peptide)
chain: NAQEKMVYSLVSVPE
B11: ITPR1_HUMAN_482 (peptide)
chain: KLLEDLVYFVTGGTN
B12: ALK_HUMAN_1092_YA (peptide)
chain: TSTIMTDYNPNACFA
B13: JAK2_HUMAN_372 (peptide)
chain: FVSLIDGYYRLTADA
B14: JAK2_HUMAN_570 (peptide)
chain: VRREVGDYGQLHETE
B15: JAK2_HUMAN_813 (peptide)
chain: NSLFTPDYELLTEND
B16: JAK2_HUMAN_868 (peptide)
chain: GSVEMCRYDPLQDNT
B17: JUNB_HUMAN_182 (peptide)
chain: GPEPPPVYTNLSSYS
B18: K2C8_HUMAN_228 (peptide)
chain: INFLRQLYEEEIREL

target: SHP2 C-SH2 domain E139D; assay: enrichment score (SH2-bound / input frequency) (ratio); bacterial display of known human phosphotyrosine sites (pTyr-Var adds point mutants) read by sequencing; higher = stronger binding; tyrosines were phosphorylated by kinases first; conditions: peptide library: Human pTyr
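Note: displayed peptides selected on beads carrying the immobilized SH2 domain, with library peptides lacking any tyrosine serving as negative controls.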

| Binder | enrichment score |
| --- | --- |
| B1 | inactive: 0.594 |
| B2 | inactive: 1.33 |
| B3 | inactive: 0.835 |
| B4 | inactive: 1.31 |
| B5 | inactive: 0.892 |
| B6 | inactive: 0.732 |
| B7 | inactive: 0.961 |
| B8 | inactive: 1.07 |
| B9 | inactive: 1.2 |
| B10 | inactive: 0.908 |
| B11 | inactive: 1.91 |
| B12 | inactive: 1.11 |
| B13 | active: 5.68 |
| B14 | inactive: 1.57 |
| B15 | inactive: 0.665 |
| B16 | inactive: 1.12 |
| B17 | inactive: 0.482 |
| B18 | inactive: 1.22 |

target: SHP2 C-SH2 domain wild-type; assay: as above; conditions: peptide library: Human pTyr

| Binder | enrichment score |
| --- | --- |
| B1 | inactive: 0.851 |
| B2 | inactive: 1.12 |
| B3 | inactive: 1 |
| B4 | inactive: 1.14 |
| B5 | inactive: 0.838 |
| B6 | inactive: 0.6 |
| B7 | inactive: 0.866 |
| B8 | inactive: 0.973 |
| B9 | inactive: 1.31 |
| B10 | inactive: 1.76 |
| B11 | inactive: 1.52 |
| B12 | inactive: 0.808 |
| B13 | active: 9.43 |
| B14 | inactive: 1.1 |
| B15 | inactive: 0.67 |
| B16 | inactive: 1.01 |
| B17 | inactive: 0.503 |
| B18 | inactive: 0.908 |

target: SHP2 N-SH2 domain L43F; assay: as above; conditions: peptide library: Human pTyr

| Binder | enrichment score |
| --- | --- |
| B1 | inactive: 0.503 |
| B2 | inactive: 0.993 |
| B3 | inactive: 2.7 |
| B4 | inactive: 1.21 |
| B5 | inactive: 1.11 |
| B6 | inactive: 0.714 |
| B7 | inactive: 0.858 |
| B8 | inactive: 1.1 |
| B9 | inactive: 1.27 |
| B10 | inactive: 0.775 |
| B11 | inactive: 1.35 |
| B12 | inactive: 0.826 |
| B13 | inactive: 1.71 |
| B14 | inactive: 0.866 |
| B15 | inactive: 0.684 |
| B16 | inactive: 0.894 |
| B17 | inactive: 0.639 |
| B18 | inactive: 1.23 |

target: SHP2 N-SH2 domain T42A; assay: as above; conditions: peptide library: Human pTyr

| Binder | enrichment score |
| --- | --- |
| B1 | inactive: 0.704 |
| B2 | inactive: 0.842 |
| B3 | inactive: 2.21 |
| B4 | inactive: 1.05 |
| B5 | inactive: 2.84 |
| B6 | inactive: 0.669 |
| B7 | inactive: 0.727 |
| B8 | inactive: 1.04 |
| B9 | inactive: 1.06 |
| B10 | inactive: 0.796 |
| B11 | inactive: 1.31 |
| B12 | inactive: 0.983 |
| B13 | active: 4.06 |
| B14 | inactive: 0.909 |
| B15 | inactive: 0.71 |
| B16 | inactive: 1.04 |
| B17 | inactive: 0.488 |
| B18 | inactive: 1.08 |

target: SHP2 N-SH2 domain T52S; assay: as above; conditions: peptide library: Human pTyr

| Binder | enrichment score |
| --- | --- |
| B1 | inactive: 0.786 |
| B2 | inactive: 1.02 |
| B3 | inactive: 2.1 |
| B4 | inactive: 1.42 |
| B5 | inactive: 1.14 |
| B6 | inactive: 0.705 |
| B7 | inactive: 0.781 |
| B8 | inactive: 1.03 |
| B9 | inactive: 1.31 |
| B10 | inactive: 0.73 |
| B11 | inactive: 1.53 |
| B12 | inactive: 0.981 |
| B13 | inactive: 2.04 |
| B14 | inactive: 0.846 |
| B15 | inactive: 0.82 |
| B16 | inactive: 1.13 |
| B17 | inactive: 0.759 |
| B18 | inactive: 1.16 |

target: SHP2 N-SH2 domain wild-type; assay: as above; conditions: peptide library: Human pTyr

| Binder | enrichment score |
| --- | --- |
| B1 | inactive: 0.665 |
| B2 | inactive: 1.04 |
| B3 | inactive: 0.723 |
| B4 | inactive: 1.52 |
| B5 | inactive: 1.04 |
| B6 | inactive: 0.668 |
| B7 | inactive: 0.964 |
| B8 | inactive: 1.15 |
| B9 | inactive: 1.47 |
| B10 | inactive: 0.89 |
| B11 | inactive: 1.96 |
| B12 | inactive: 0.719 |
| B13 | inactive: 2.38 |
| B14 | inactive: 0.806 |
| B15 | inactive: 0.876 |
| B16 | inactive: 1.1 |
| B17 | inactive: 0.486 |
| B18 | inactive: 1.26 |
